# Laboratory results reported in PMC4336329 (PLoS ONE, 2015).
# Among all 310,000 compounds or so, about 14,000 (4.5%) showed an effect of 50% or more. Effects have a minus sign here. The list shows a part of the results.
# Molecular target: human ether-à-go-go-related gene (hERG) potassium channel (human, UniProt Q12809)
# Test: primary screen, population patch clamp on CHO cells stably expressing hERG
# 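Further: peak tail current of the secondary pulse compared with the same well before compound.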
# Sequence of human ether-à-go-go-related gene (hERG) potassium channel (Q12809 whole entry, looked up): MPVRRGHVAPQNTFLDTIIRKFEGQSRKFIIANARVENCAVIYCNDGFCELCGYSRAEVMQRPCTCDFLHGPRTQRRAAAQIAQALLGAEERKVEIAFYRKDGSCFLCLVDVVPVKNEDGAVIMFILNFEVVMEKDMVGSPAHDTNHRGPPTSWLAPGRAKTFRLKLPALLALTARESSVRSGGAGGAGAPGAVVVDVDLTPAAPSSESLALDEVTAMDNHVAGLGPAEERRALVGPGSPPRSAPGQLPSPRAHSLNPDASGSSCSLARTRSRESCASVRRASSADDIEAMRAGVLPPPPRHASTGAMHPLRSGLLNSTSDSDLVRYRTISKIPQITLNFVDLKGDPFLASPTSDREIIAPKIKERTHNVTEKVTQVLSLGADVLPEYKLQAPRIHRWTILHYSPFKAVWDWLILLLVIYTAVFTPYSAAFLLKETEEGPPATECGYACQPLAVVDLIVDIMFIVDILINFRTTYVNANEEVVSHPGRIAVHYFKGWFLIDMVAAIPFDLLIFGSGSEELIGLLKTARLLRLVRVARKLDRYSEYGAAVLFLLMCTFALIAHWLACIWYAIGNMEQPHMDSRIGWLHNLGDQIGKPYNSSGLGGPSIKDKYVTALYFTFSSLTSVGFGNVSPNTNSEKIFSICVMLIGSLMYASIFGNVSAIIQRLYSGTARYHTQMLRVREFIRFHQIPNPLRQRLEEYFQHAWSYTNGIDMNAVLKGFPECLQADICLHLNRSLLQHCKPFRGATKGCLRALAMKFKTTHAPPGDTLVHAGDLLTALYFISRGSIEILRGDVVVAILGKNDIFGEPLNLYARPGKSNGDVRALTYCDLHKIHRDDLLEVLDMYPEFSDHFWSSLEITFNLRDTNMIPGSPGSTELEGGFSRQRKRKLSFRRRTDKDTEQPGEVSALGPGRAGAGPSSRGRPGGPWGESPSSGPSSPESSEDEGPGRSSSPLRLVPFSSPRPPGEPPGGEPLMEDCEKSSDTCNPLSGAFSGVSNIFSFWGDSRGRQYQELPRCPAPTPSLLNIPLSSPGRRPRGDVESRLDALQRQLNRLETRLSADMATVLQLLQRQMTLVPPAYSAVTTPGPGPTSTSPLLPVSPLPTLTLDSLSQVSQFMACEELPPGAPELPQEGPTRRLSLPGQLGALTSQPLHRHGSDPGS
row,Compound,"hERG current change (%, negative = inhibition) at 10uM [%]"
1,Cc1ccc(S(=O)(=O)NCCC(=O)OCc2ccc([N+](=O)[O-])cc2)cc1C,-42.3
2,Cc1ccc(C(C)C)c(OCCCCN2CCNCC2)c1.O=C(O)C(=O)O,-6.77
3,CC(C)CC1NC(=O)N(CC(=O)N2CCN(S(=O)(=O)c3ccccc3)CC2)C1=O (stereo not drawn),0.15
4,CCC(=O)c1ccccc1OCCCn1cncn1,-4.3
5,CC(C)(C)OC(=O)N[C@@H](Cc1ccccc1)C(=O)N1CCC(C(=O)NCC(=O)O)CC1,3.7
6,CCOc1ccc(NC(=O)COc2ccc(C(=O)N3CCC(C(N)=O)CC3)cc2OC)cc1,9.91
7,COc1ccccc1S(=O)(=O)Nc1ccc2cn[nH]c2c1,11.3
8,c1ccc(C2=NOC(c3nnc(-c4ccccc4)o3)C2)cc1 (stereo not drawn),-33.1
9,OC1CCCN(c2c3c(nc4cc(-c5cccc(Cl)c5)nn24)CCC3)C1 (stereo not drawn),-29.5
10,S=C1NC2(CCCCCC2)N=C1c1ccccc1,9.23
11,O=C(/C=C/c1ccco1)N/C(=C\c1ccccc1)C(=O)NCCc1nc2ccccc2[nH]1,-46.3
12,Cc1cc(C)c2c(=O)[nH]c(SCc3ccc([N+](=O)[O-])cc3)nc2n1,-33.3
13,CC(=O)Nc1ccc(S(=O)(=O)N(C)CC(=O)OC(C)C(=O)N(C)C2CCCCC2)cc1 (stereo not drawn),8.67
14,CC(=O)c1c(C)nn(CCC(=O)O)c1C,8.63
15,Cc1ccc(-n2ncc3c(NNC(=O)c4ccco4)ncnc32)c(C)c1,38.1
16,CCOC(=O)C1CCCN(C(=O)c2ccccc2NC(=O)C2=C(C)OCCS2)C1 (stereo not drawn),20.7
17,CC(C)(C)C(=O)N1CCN(C(c2ccccc2)c2ccccc2)CC1,-2.12
18,Cc1cc(C)n(CC(O)COc2ccccc2C(=O)Nc2ccccc2)n1 (stereo not drawn),-26.1
19,O=C(C1CCCN(C2CC(=O)N(c3ccc(F)cc3)C2=O)C1)N1CCCC1 (stereo not drawn),29.4
20,Cl.O=[N+]([O-])c1cc(S(=O)(=O)CCCN2CCOCC2)ccc1F,14.9
21,CCOC(=O)c1ccc(NC(=S)N2CCN(S(C)(=O)=O)CC2)cc1,-0.876
22,COCCn1c(SCC(=O)Nc2cccc(OC)c2)nc2c(oc3ccccc32)c1=O,-42.2
23,O=C(Nc1nn(Cc2ccccc2F)cc1Br)c1cccs1,-5.22
24,CC(C)(CC(=O)O)CC(=O)Nc1ccccc1Oc1ccccc1,-8.54
